Measurements taken from the supplement of paper PMC10126150.
Sequences with one replicate were seen in a single cluster, so their values are uncertain.

Test system: ATP
Experiment: switch fluorescence ratio, 500 uM ATP over buffer (Cy3 cluster intensity, sum of 5 cycles each) (fold (ratio)); higher = stronger signal-on switching upon ATP binding; sequences stand for … in TCGTCGGCAGCGTCAGATGTGTATAAGAGACAGTTTTTTTTTTTTTTTTTTTTTTTTT…TC
Settings: aptamer strand: ATP DNA aptamer (quencher-CACCTGGGGGAGTATTGCGGAGGAAGG + anchor), 100 nM annealed; ATP concentration: 500 uM; one replicate
How it was run: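 Switching-strand clusters labelled with Cy3 on a modified Illumina MiSeq flow-cell were annealed to 100 nM quencher-labelled ATP aptamer, imaged in selection buffer, and re-imaged after 15 min with 500 uM ATP at 22 °C. This was done over five cycles with NaOH stripping and re-annealing in between. The fluorescence ratio is summed target-cycle over summed buffer-cycle Cy3 intensity per cluster, averaged per switch-domain sequence, excluding clusters outside 100-1000 RFU.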
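Note: ATP exposure 15 min at 22 °C before imaging.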

Sequence | switch fluorescence ratio
GATAGAGAAG | 1
ATTGTACGAC | 1.09
CAGCTCCGGA | 1.04
TGCTGTGCCG | 1.07
AAAAAAATCA | 1.06
AATTGGGTGT | 1.05
AAGTCCATG | 0.996
GCATAAGGCT | 1.03
ACATGATTCT | 1.02
CCCATTAAAA | 1.01
CACTTATTTG | 0.976
GGAATGGACG | 1.01
ATGCGGGCTA | 1
GTTATTGTAA | 0.966
TAGGATATTC | 1.03
ACTTTGTAG | 1.05
AGCAAAGCGG | 0.971
TCACAATCAT | 1.04
GTTTATAGGA | 1.01
GCGGGGCACG | 0.971
TAGGGAGATA | 0.943
TACCCGGGGA | 1.37
CTGACAGGGA | 0.988

Sequence | switch fluorescence ratio
GACTTGATGT | 1.03
TGTTTAATAG | 0.976
TTTTGCCATC | 0.968
AGTCATGGGA | 0.943
CGCTAATGGG | 1.09
TCGTGATCTT | 1.01
ATTAACATGG | 1.02
GTCGTGGGA | 1.04
CGCATTTAAA | 1.02
ATTGAATAA | 0.975
ATTCGCATAT | 2.74
GGGTCATTCC | 1.12
ATTCGTCTTT | 0.957
TACACTGTTC | 0.985
CCGGCCCATT | 1.09
TATCGTTGCC | 0.989
CCTGCTTGTG | 1.01
CTCGCCCGCT | 1.19
TTAACCATAA | 1.03
ACTTCTCGTC | 1.03
AAGACTTGAA | 0.996
GGTTACTCGG | 1.03
GTGTATTCGG | 0.962

Sequence | switch fluorescence ratio
GACTTAATTC | 1.03
CGTTGATCGG | 1.01
ATTAAAGCT | 1.17
GGCGCGAGTG | 0.945
TGAGGATTAA | 0.952
AAAATTGGCG | 1.06
CGGTCAGGAC | 1.17
TTGACCGGTG | 1.01
AACAGCAAGG | 1.07
CTCTTTCTA | 1.03
AAGACATTAT | 1.02
TGTCAGGGTC | 1
CCATCTCTGA | 1.02
GGATTCGTCT | 0.898
GGACTCATCA | 1.04
CTGCGTCTTA | 0.993
GTCGTACTAA | 1.03
ACGAGAGGCG | 1.03
TTTTACATGC | 1.03
CACGGTGTAC | 1.34
GTTCGGCGGG | 0.995
TGTAATCCCT | 1.05
CAGGCTTCGT | 1.02

Sequence | switch fluorescence ratio
TAAAGCTAAT | 1.03
TCATGAGGAA | 1
CCAAGTGTCG | 0.977
GATTGAACT | 0.994
TATCAGAGTT | 0.954
GTTCTTTAAG | 0.979
TATCGAGGG | 1
GTGATTAAAC | 0.985
GATTCTGAGG | 0.984
TTGACCGGCG | 1.12
GCTATTTATG | 0.988
TATAGCAGAA | 0.997
AGTTCAAGTA | 0.993
ATACCTTATT | 1.02
AGTAGAACCA | 1.04
ATTGCCTTGC | 1.05
CATCACCTGC | 1.07
ATTCAGAAAT | 0.961
AGTTATGGAA | 0.963
GGTCTTTATA | 1.02
TACACTTTA | 1.06
AATGTAGAGG | 1.02
TAGTTGGTTC | 0.932

Sequence | switch fluorescence ratio
GGGGGTGTG | 1.01
TTGGTCGACA | 0.997
TGAGAATCTT | 0.983
ACGACATGCG | 1
GGAGATCATG | 1.01
CCGTACTTTT | 1.06
ATGTGAAGAC | 1.01
AATCGGAGAA | 0.991
AGCTCGGGAA | 1.08
TCGAAATGCT | 1.53
CGGCAGGAGC | 0.972
TGGGCCCGCT | 1.03
AGTCATGGTA | 1.02
ATGTTCGTCG | 0.968
GCACGGACCG | 1.01
AACGCGGATT | 1
CATAAGTTCG | 1.02
GCTTACGGAC | 1.5
AACAGGTAGG | 1.02
ATACCCGTTT | 1.02
ATTGGGAACG | 1.01
ATGTACTTAA | 1.04
TCGTTATTA | 0.978

Sequence | switch fluorescence ratio
GGAGTGCCAT | 1.01
GTTTTACC | 0.996
ACGAGTCATA | 1.03
ACATTCTCAG | 1
TTGGCTCCCG | 0.949
GCTCCAACGT | 1.05
ATATCTATAC | 1.12
GACAACGTCC | 0.955
GGGTAATGGT | 0.98
TTTACCATTC | 0.989
GAGAGCTTTA | 0.999
AGGCCGCT | 0.982
CATGATATTG | 0.961
AAACAAAATA | 1.06
AAAACACGGG | 1.04
AATCTAGTGG | 1
AATTGCGACA | 1.03
TTTACGTCCG | 1.07
GAAAGCTATG | 1.02
CTCAAGCGAT | 5.93
TCTATCTTCC | 2.15
CCGTTGGCGA | 1.78
TCAGGGGCT | 1.06

Sequence | switch fluorescence ratio
CCACTGAATA | 1.11
GAAGATACGC | 1.05
ATGGAATATC | 1.08
ATTCCATGTC | 1.08
CGACGTTCAG | 0.977
CGTTGTTTAG | 0.995
ATTCGCTGAA | 1.05
GATCGATTTT | 0.972
TAGGGTAAAA | 0.972
CCCCGTGAGC | 3.38
GTCAGGTGGG | 1.12
GACGCGCAGG | 1.07
ATCGCCCATA | 1.02
CCGCGTTTCC | 3.94
GAGGGACTAT | 1.04
TACCTACGAC | 1.42
AGCCTGTCCG | 1.03
GACTACGGGG | 1.11
GGTCACGCGC | 1.02
